# Data: the supplement of paper PMC10126150
# Sequences with one replicate were seen in a single cluster, so their values are uncertain.
# Tested on: ATP
# Test: switch fluorescence ratio, 500 uM ATP over buffer (Cy3 cluster intensity, sum of 5 cycles each) (fold (ratio)); higher = stronger signal-on switching upon ATP binding; sequences stand for … in TCGTCGGCAGCGTCAGATGTGTATAAGAGACAGTTTTTTTTTTTTTTTTTTTTTTTTT…TC
# Conditions: aptamer strand: ATP DNA aptamer (quencher-CACCTGGGGGAGTATTGCGGAGGAAGG + anchor), 100 nM annealed; ATP concentration: 500 uM; one replicate
# Procedure, shortened: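 The quencher-labelled ATP aptamer, at 100 nM, was annealed to Cy3-labelled switching-strand clusters on a modified Illumina MiSeq flow-cell. The clusters were imaged in selection buffer, then after 15 min with 500 uM ATP at 22 °C, and this buffer/ATP cycle ran five times with NaOH stripping and re-annealing between runs. Per-cluster fluorescence ratios, summed target-cycle over summed buffer-cycle Cy3 intensity, were averaged per switch-domain sequence. Clusters outside 100-1000 RFU were excluded.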
# 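Note: ATP exposure 15 min at 22 °C before imaging.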
row,Sequence,switch fluorescence ratio
1,CCACCTGGTA,1.32
2,CCACGAGTGC,1.04
3,CCACGGTTCG,1
4,CCACTACGAG,1.06
5,CCACTATTTC,1.06
6,CCACTGGTTT,1.04
7,CCAGAAGAGG,0.986
8,CCAGAGCCTG,1.15
9,CCAGATTAAC,1.07
10,CCAGCCCCTC,1.17
11,CCAGCCGCCT,1.07
12,CCAGCGTT,1.04
13,CCAGGACGAG,1.01
14,CCAGGAGGTC,0.987
15,CCAGGCTGGG,1.08
16,CCAGGCTGTG,0.956
17,CCAGGGGGTA,1.19
18,CCAGGTCACG,0.998
19,CCAGGTTATT,1.08
20,CCAGGTTTT,1.07
21,CCAGTAACGC,1.1
22,CCAGTAAGGG,1.03
23,CCAGTACACG,0.988
24,CCAGTACGCG,1.06
25,CCAGTGACTA,1.02

row,Sequence,switch fluorescence ratio
1,CCAGTGAGTA,1.02
2,CCAGTGCGGG,0.982
3,CCAGTGGCGC,1.03
4,CCAGTGGGAG,1.03
5,CCAGTGGTCG,0.973
6,CCAGTTTGG,0.975
7,CCATAAATTT,0.982
8,CCATAATCGC,1.04
9,CCATACAGCG,0.993
10,CCATACGCTC,2.49
11,CCATAGCCCT,1.33
12,CCATAGTAGT,1.13
13,CCATATATTG,0.948
14,CCATATTCAG,0.963
15,CCATATTTGC,1.09
16,CCATCATCGT,0.989
17,CCATCCCATT,1.07
18,CCATCGGCTT,1.02
19,CCATCTATTG,1.02
20,CCATCTGTTT,1.03
21,CCATGCAATT,3.85
22,CCATGGGAAT,0.935
23,CCATGGGACG,1
24,CCATGGGGAG,1.02
25,CCATGTTGGC,0.957

row,Sequence,switch fluorescence ratio
1,CCATGTTTGA,0.991
2,CCATTAGATC,1.03
3,CCATTATTGA,0.959
4,CCATTCAATC,1.28
5,CCATTCGTAA,2.68
6,CCATTCGTCA,1.08
7,CCATTGACAC,1.04
8,CCATTGCCCC,1.02
9,CCATTTACAG,1.01
10,CCATTTGAAA,1.01
11,CCCAAATAAG,1.05
12,CCCAAATCGC,3.94
13,CCCAACCCCG,1.05
14,CCCAACCCT,1.01
15,CCCAAGACGG,1.16
16,CCCAATGGGA,1.01
17,CCCACATATG,1
18,CCCACATGGA,1.05
19,CCCACTATGG,1.08
20,CCCAGACCTG,0.968
21,CCCAGAGCCA,1.11
22,CCCAGCAGCA,1.89
23,CCCAGGTTTG,2.7
24,CCCATCTGGT,1.06
25,CCCATGCAT,1.39

row,Sequence,switch fluorescence ratio
1,CCCATGCGAT,2.52
2,CCCATTAGTG,1.13
3,CCCCAACGCC,1.47
4,CCCCAAGTGG,2
5,CCCCAATCGG,1.18
6,CCCCACTGTT,1.06
7,CCCCATATTG,1.08
8,CCCCATTGGA,1.03
9,CCCCCGTTTT,1.24
10,CCCCGAGGAA,1.06
11,CCCCGGAAGT,1.49
12,CCCCTAAGTG,2.61
13,CCCCTAGAGA,1.07
14,CCCCTATTTA,0.968
15,CCCCTCGCAG,3.34
16,CCCCTGAAAA,1.08
17,CCCCTGGCGT,2.14
18,CCCCTGTGTC,1.94
19,CCCCTTGCAG,1.16
20,CCCGACTGGG,1.03
21,CCCGAGATTA,1.02
22,CCCGAGCACG,1.44
23,CCCGATGCGG,2.24
24,CCCGCCTCTG,1.18
25,CCCGCGTAGT,1.21

row,Sequence,switch fluorescence ratio
1,CCCGCGTCTC,2.29
2,CCCGGAATTA,1.62
3,CCCGGACGTG,1.01
4,CCCGGCAGGA,1.9
5,CCCGGGCGGC,0.981
6,CCCGGGCTG,1.02
7,CCCGGGGTC,1
8,CCCGGGGTGG,0.952
9,CCCGGGTAGC,1.07
10,CCCGGGTTTG,1.05
11,CCCGGTAAAA,0.979
12,CCCGGTGGTG,1.04
13,CCCGTACGAG,1.18
14,CCCGTAGATT,0.989
15,CCCGTAGTTT,1.04
16,CCCGTATTTT,1.02
17,CCCGTCAGTG,1.32
18,CCCGTCATCC,1.45
19,CCCGTGAATA,1.41
20,CCCTATGATT,0.934
21,CCCTCAAATT,1.16
22,CCCTCATTCT,1.03
23,CCCTCCCGGA,1.06
24,CCCTCGGCAC,6.68
25,CCCTCGTAGG,1.03

row,Sequence,switch fluorescence ratio
1,CCCTCTCATG,0.982
2,CCCTCTTAA,1.05
3,CCCTGCCGAG,1.33
4,CCCTGCTGT,1.27
5,CCCTGGCGCG,1.05
6,CCCTGTTTTT,0.997
7,CCCTTACCTC,1.13
8,CCCTTCTTGT,1.04
9,CCCTTGGGGT,4.31
10,CCCTTGGGTA,1.04
11,CCGAAACGTT,1.17
12,CCGAAAGGAT,1.62
13,CCGAAATATA,2.01
14,CCGAACATTT,1.14
15,CCGAACCATG,1.36
16,CCGAACGATT,3.36
17,CCGAATTTG,1.05
18,CCGACAGGTC,1.48
19,CCGAGCTTGT,1.67
20,CCGAGGCCTA,3.51
21,CCGAGTATGG,1.11
22,CCGAGTCCCG,1.19
23,CCGATATAGA,1.01
24,CCGATCTGTC,1.18
25,CCGATTCGGC,1.01

row,Sequence,switch fluorescence ratio
1,CCGATTGAGT,1.01
2,CCGCAGAAGG,2.37
3,CCGCCCAGGG,6.1
4,CCGCCCAGGT,1.03
5,CCGCCCGAGC,4.67
6,CCGCCGGGGA,2.12
7,CCGCCGTCGA,1.91
8,CCGCTGCGGC,1.66
9,CCGCTGTAGG,1.08
10,CCGCTGTATC,3.48
11,CCGCTGTGCG,1.09
12,CCGCTTTCAG,1.4
13,CCGCTTTCGG,1.09
14,CCGGAAAAAT,1.55
15,CCGGAAAGCT,1.53
16,CCGGAAGATG,1.14
17,CCGGAAGCG,1.79
18,CCGGACTTTG,1
19,CCGGATATTT,1.02
20,CCGGATGCCT,1.04
21,CCGGCAAAAT,1.04
22,CCGGCAAACG,2.39
23,CCGGCAAGAA,4.86
24,CCGGCCGGAT,1.06
25,CCGGCGACTC,1.59

row,Sequence,switch fluorescence ratio
1,CCGGCTGTGG,1.06
2,CCGGGACAAC,1.7
3,CCGGGACTTG,0.974
4,CCGGGATAAC,2.26
5,CCGGGCCACG,1.03
6,CCGGGCGGTC,1.68
7,CCGGGGATAG,1.98
8,CCGGGGCCAC,1.16
9,CCGGGGCTTA,1.44
10,CCGGGTGAGA,1.11
11,CCGGTAAAGC,1.31
12,CCGGTAGCG,1.48
13,CCGGTAGGAT,1.01
14,CCGGTAGTGG,1.05
15,CCGGTATTAG,1.21
16,CCGGTCACCC,1.24
17,CCGGTCCAAT,4.1
18,CCGGTCCCAG,2.33
19,CCGGTGACAG,1.04
20,CCGGTGGCAT,2.43
21,CCGGTGGGGG,1.04
22,CCGGTGTATC,1.23
23,CCGGTGTTTA,1.02
24,CCGGTTGCCT,1
25,CCGGTTGCGC,1.37
